From PMC6212790
The list shows a part of the results. At the low end of the ranking, values are background and their order means little.

Each sequence was assayed against T1, GST-Rok (full length) (UniProt O34857) (assay: protein binding microarray). Details: Rok is a gene silencer of Bacillus subtilis; high values mean tight binding; most listed sequences are background and not binding sites; double strand, one strand shown.
T1 sequence: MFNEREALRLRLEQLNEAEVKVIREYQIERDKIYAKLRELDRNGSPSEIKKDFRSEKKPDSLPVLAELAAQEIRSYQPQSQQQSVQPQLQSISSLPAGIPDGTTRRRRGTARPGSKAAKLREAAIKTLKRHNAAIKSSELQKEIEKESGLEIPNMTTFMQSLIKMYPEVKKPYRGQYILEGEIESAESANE
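Further: rank score from −0.5 (least bound) to 0.5 (best bound).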

Sequence	binding signal [E-score]
GACACCAC	0.0479
CGTAAATA	0.343
CCTGCTCG	-0.399
CAAAGTCG	0.0362
ACATATCA	0.22
GCAGCTCA	-0.239
CACACACG	-0.145
CCTTCACC	-0.226
ACCGTTGC	0.141
ATCCGTCA	-0.022
CTCCGGCA	-0.256
TAACTATA	0.341
CTCTAATA	0.047
CTCCGATC	-0.137
CCATCAAC	-0.0712
GGCAAGGA	-0.229
CTCGGGTC	-0.297
AGCAACCG	-0.101
AGTAATGC	0.0808
TGTCCTAA	-0.00549
TAGGTCCA	-0.0528
CGAGTAGC	-0.0915
ACCGGCCA	-0.252
AAAGCGCG	-0.0748
GAGATGAA	-0.185

Sequence	binding signal [E-score]
ATCCCATA	0.0754
CCCCTGGA	-0.338
CACCATGA	-0.192
AGATTCAC	0.235
CCCTTCGC	-0.278
AAATCGCA	0.115
GGGCTGAA	-0.297
AGTTAGAT	0.162
GTTTGAAA	0.00281
AACGTCAA	0.107
ATCCCTAC	-0.0161
GTGTTGCA	0.0637
GCCGTTGA	-0.169
ACGGGAAT	0.0857
CGTGTGAA	0.0388
AGGGCAGG	-0.304
GCAAAGTA	0.173
GGAGCTAC	0.0887
AAAAGAAA	-0.0875
ACGCCGAA	-0.18
CTGAACTC	0.0655
ATGTGTAC	0.115
CTAGTGTA	0.228
GTAGTGGA	0.118
CGGAACGA	0.0202

Sequence	binding signal [E-score]
CGTAATCA	-0.0379
AGATAGGA	0.204
CGCGCTTA	-0.0214
AGGGGTGG	-0.292
GGTTGGTA	0.109
GAGTGGAC	-0.094
CTACTCAC	0.0984
ATAGGAGA	0.116
GCCCTCCA	-0.391
CAGTCTGC	-0.137
GCGTCGGA	-0.312
AAAACATG	0.101
TAGGAGGA	-0.202
AACCACTC	0.047
TAGACGCA	-0.0282
ATCGTGTC	-0.0601
ACGCTCCC	-0.245
CGACTTTA	-0.0687
TACCTTCA	-0.0871
AACGTCAC	-0.0864
ATAATCGC	0.244
AGATAAAT	0.265
AAATCCTC	-0.027
GACCTGAA	0.0667
GCAGGGAA	-0.158

Sequence	binding signal [E-score]
ACTACTAA	0.386
CTTGATTC	0.0259
CATTCGGC	-0.0951
CGCGCAGC	-0.387
ACTGTATC	0.172
AAGCTCTC	-0.146
CTTAGCGC	0.101
GCTATACA	0.201
AACACTCC	-0.0259
ACTCTGAT	-0.0267
CGCTTCAC	-0.21
CGCTAATC	0.123
CTATTGCA	0.243
CATCTCCA	0.235
ACTGCTCA	-0.00811
CTGACGTA	-0.0763
CGTTCCGC	-0.323
CTACGCAG	-0.118
ACGGAATG	0.193
AAGTCTAC	0.0289
GGCATGTA	0.203
GTCTCCTA	-0.0431
CTATGAAC	-0.0239
CGGACTTA	-0.176
ACTACAGC	0.266

Sequence	binding signal [E-score]
GTGTCAAA	-0.0635
GCATACGC	-0.114
CAGGTAAA	0.0687
AATCGAGA	0.0905
CTTTTCCA	-0.058
CGGGTGGC	-0.0716
AGGTTAAG	-0.12
CATCCCGA	-0.0162
ATGCGATA	0.138
CTTGTAGC	0.0768
AAAGGGGA	-0.229
CCTCCGAG	-0.367
AACTAGTT	0.441
GACATCGA	0.00894
ATGGATTA	0.209
CCGGGGAG	-0.421
CACGCCTC	-0.199
ACTCAAGG	-0.109
GGATACTA	0.211
GGCTTCCA	-0.137
GGTCTAAA	0.0268
ACTGAATG	-0.0244
ATATAGGG	-0.0461
GTTTCGCA	-0.148
ATCTAAGC	0.0122

Sequence	binding signal [E-score]
CAGTGGGA	-0.294
CTATGCAC	0.0893
AAACCAGG	-0.226
CCAGAAAC	-0.128
CCGCTCGC	-0.206
GAAGGACC	-0.0427
CATCTGCA	-0.0265
ACTCTGGC	-0.291
AACTAGAG	0.107
CGCGCATA	0.139
CGGCAGAG	-0.303
AAGAGTTA	0.0655
CTAGTTCC	0.188
AAAGAATG	0.205
TCACGTCA	0.0091
GTCCTCAA	-0.0773
ACAAGATC	0.0361
CGCATCTC	-0.177
GGTGAAAA	-0.000164
TCCTTCCA	-0.154
CACCGAAA	0.0776
CCCTGAGG	-0.352
AGGCACAG	-0.137
CCATCCTC	-0.27
GTGTGGCA	-0.11

Sequence	binding signal [E-score]
ATAAAGCA	-0.0165
CTCCAACC	-0.263
AGGGCAAC	-0.157
CAGCAATG	-0.0438
ATCCTATG	0.106
GAGACGGC	-0.326
CAGTTATA	0.288
ATCTATCG	0.334
GGATCCAA	-0.0352
ACGCATCT	0.0561
ATGTGAGC	-0.055
CTACACGC	0.209
CGTAGTCC	-0.0635
ACATCAGG	0.129
ATCAAACC	-0.0337
AATACAAG	0.234
CACTAGAA	0.224
GTCCTTGA	-0.293
CAGCTAGA	0.0847
AAGCTTCA	-0.153
ATGAGAAG	0.0915
GAAGGCCA	-0.36
